Test results: PubChem BioAssay AID1645882 (National Center for Advancing Translational Sciences (NCATS), 2021)
Screen size: about 16,000 compounds; about 120 (0.75%) were called active. About 4% were inconclusive and are not listed. Calls follow the shape of the dose curve; as a rule, active = well fitted inhibition curve with a large enough effect; inconclusive = small, poorly fitted or top-dose-only effect; inactive = no such curve, though single readings can be large or run the other way. This is one part of the list.

What follows are molecules tested against Rap guanine nucleotide exchange factor 3 (Homo sapiens) (UniProt O95398) (assay: Validation qHTS for antagonist of cAMP-regulated guanine nucleotide exchange factor 3 (EPAC1)). Conditions: EPAC1 Rap1B-BODIPY-GDP exchange, fluorescence; series mostly up to 150 µM; activity change, negative = inhibition: at the top concentration.
Outline: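 Nucleotide exchange followed as fluorescence loss when BODIPY-GDP leaves Rap1B (480 nm excitation, 540 nm emission), read at 5 min intervals over 30 min. Reaction: 100 nM EPAC1, 250 nM RAP1B-BODIPY-GDP, 50 uM GDP; ATA and DMSO define normalization.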
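Also: plate controls were DMSO for no effect and ATA control for full effect; nearly all actives have a fitted effect of over 75% in size.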

Chain of UniProt O95398 (O95398 whole entry, looked up): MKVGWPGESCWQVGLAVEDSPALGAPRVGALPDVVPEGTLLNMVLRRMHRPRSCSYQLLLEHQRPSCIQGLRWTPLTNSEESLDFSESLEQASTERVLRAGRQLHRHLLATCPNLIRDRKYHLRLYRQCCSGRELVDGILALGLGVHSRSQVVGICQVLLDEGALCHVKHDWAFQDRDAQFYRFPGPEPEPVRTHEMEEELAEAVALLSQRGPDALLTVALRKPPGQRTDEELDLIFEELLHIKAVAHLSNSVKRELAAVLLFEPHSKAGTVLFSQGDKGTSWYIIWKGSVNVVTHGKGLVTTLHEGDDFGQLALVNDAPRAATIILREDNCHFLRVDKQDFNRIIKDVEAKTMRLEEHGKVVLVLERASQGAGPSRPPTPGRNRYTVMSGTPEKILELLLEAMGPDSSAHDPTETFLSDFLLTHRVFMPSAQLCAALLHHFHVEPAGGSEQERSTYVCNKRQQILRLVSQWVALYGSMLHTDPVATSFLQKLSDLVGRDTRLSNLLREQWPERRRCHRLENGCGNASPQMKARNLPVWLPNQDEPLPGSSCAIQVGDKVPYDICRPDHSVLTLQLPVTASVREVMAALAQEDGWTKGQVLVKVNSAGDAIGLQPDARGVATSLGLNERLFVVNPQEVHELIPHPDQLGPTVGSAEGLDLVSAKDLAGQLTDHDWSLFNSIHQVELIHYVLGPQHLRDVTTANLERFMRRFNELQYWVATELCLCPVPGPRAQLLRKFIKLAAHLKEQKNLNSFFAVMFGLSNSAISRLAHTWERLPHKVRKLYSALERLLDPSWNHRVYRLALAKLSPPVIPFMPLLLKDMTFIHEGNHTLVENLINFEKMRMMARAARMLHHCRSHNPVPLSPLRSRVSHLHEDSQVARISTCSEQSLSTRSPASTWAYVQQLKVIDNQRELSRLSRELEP

Activity change, negative = inhibition, inactive:
COc1ccc(NC(=O)N2CCCC3(CCN(C(=O)c4cccn4C)CC3)C2)cc1 6.37%
CC(C)n1c(/C=C/[C@@H](O)C[C@@H](O)CC(=O)O)c(-c2ccc(F)cc2)c2ccccc21 12.9%
FC(F)(F)c1ccccc1-c1ccc2ncnc(NCCN3CCOCC3)c2c1 20.8%
COC1=C(OC)C(=O)C(CCCCCCCCCCO)=C(C)C1=O 11.8%
Cn1c(=O)c(-c2ccccc2)c(O)c2ccccc21 24.5%
CCNC(=O)N1CCN(CCCC(c2ccc(F)cc2)c2ccc(F)cc2)CC1
Fc1ccc(C(OCCCc2cnc[nH]2)c2ccc(F)cc2)cc1 1.39% [at 75.8 µM]
CCOC(=O)C[C@H]1c2ccc(C(F)(F)F)cc2S(=O)(=O)N1C1CCCC1 -7.38%
O=c1c(-c2ccc(F)c(F)c2)nc2cncnc2n1Cc1ccccc1 -6.98%
O=c1[nH]c(Cl)nc2c1ncn2C1OC(CO)C(O)C1O (stereo unspecified) 12.3%
CCC(CCC(C)C1CCC2C3CC=C4CC(OC(C)=O)CC[C@@]4(C)C3CC[C@@]12C)C(C)C (stereo partly specified) 11.8%
COc1ccc(-c2nc3cnc(Oc4ccccc4)nc3n(Cc3cccs3)c2=O)cc1 3.31%
CCCCNc1ccc(C(=O)OCCN(CC)CC)cc1 23.2%
COc1cc2c(cc1OC)-c1cc(=Nc3c(C)cc(C)cc3C)n(C)c(=O)n1CC2
COc1ccc(Oc2ncc3nc(-c4cc(F)cc(F)c4)c(=O)n(CCC#N)c3n2)cc1 -0.453%
N#CCCn1c(=O)c(-c2cccs2)nc2cnc(N3CCOCC3)nc21 43%
CC1=C(C(=O)O)N2C(=O)C(NC(=O)C(N)C3=CCC=CC3)C2SC1 (stereo unspecified) 17.8%
CCOC(=O)[C@H](CCc1ccccc1)N[C@H]1CCc2ccccc2N(CC(=O)O)C1=O 13.7%
COC(=O)/C=C\c1cc(O)ccc1O 6.46%
CC1=CC(=O)C2C(C)(C)CCC[C@@]2(C)[C@@]1(O)CCc1ccoc1 (stereo partly specified) -0.111%
CCCCCCCCCCCC[n+]1ccc2ccccc2c1 11.4%
CC(C)(C)NC[C@H](O)COc1nsnc1N1CCOCC1
C[C@]12CCC(=O)C=C1CC[C@@H]1[C@@H]2[C@@H](O)C[C@@]2(C)[C@H]1CC[C@]2(O)C(=O)COC(=O)CCC(=O)O 26.3%
CN(C)C(=O)c1ccc(-c2ccc3ncnc(NC4CCNCC4)c3c2)cc1 4.76%
Cc1nc2cnc(Nc3ccccc3)nc2n(Cc2ccc(F)cc2)c1=O -9.88%
COc1cc2c(cc1OC)/C(=C/c1ccc(N(C)C)cc1)C=C2 5.15%
c1ccc2c(c1)CCC[C@H]2Nc1nc2ccccc2[nH]1 4.65% [at 75.8 µM]
NCCCC[C@H](N[C@@H](CCc1ccccc1)C(=O)O)C(=O)N1CCC[C@H]1C(=O)O -1.21% [at 75.8 µM]
NC1(C(=O)O)CCCC1 15.5%
O=C(/C=C/c1ccccn1)NCC1Cc2cccc(-c3ncccn3)c2O1 (stereo unspecified) 18.1%
CO[C@H]1[C@H](NC(=O)c2ccsc2)c2ccccc2C12CCN(Cc1cnn(C)c1C)CC2 -14.7%
COCC(=O)Nc1cc(C(=O)N2CCN(c3ccccc3)CC2C)c2c(c1)nc(-c1ccncc1)n2C (stereo unspecified) 15.6%
Cc1ccc(CN2CCOc3ccc(C(C)(O)COc4ccccc4)cc3C2)o1 (stereo unspecified) 14%
CC(C)CN1CC[C@@]2(CCCN(C(=O)c3cnccn3)C2)C1 4.51%
CSc1ccc(-c2ccc(C(=O)NCC3CCCO3)c(N3CCC(O)CC3)n2)cc1 (stereo unspecified) 21.5%
COc1cccc(Nc2ncc3nc(-c4ccccc4)c(=O)n(C4CC4)c3n2)c1 -1.83%
O=c1c(O)c(-c2ccc(O)c(O)c2)oc2c(OC3OC(CO)C(O)C(O)C3O)c(O)cc(O)c12 (stereo unspecified) -23.5%
COc1ccc(NC(=O)c2ccc(-c3ccc(-c4noc(C)n4)cc3C)cc2)cc1OCCN(C)C
N#Cc1ccc(CN2CC[C@@]3(CCCN(C(=O)c4cccc(F)c4)C3)C2)cc1 -1.06%
FC(F)(F)c1ccccc1-n1ccnc1
CC1CN(CC(=O)NCc2ccc3c(c2)OCO3)Cc2cc(Cl)ccc2O1 (stereo unspecified) 14.4%
COc1ccc2[nH]cc(CCNc3nc(-c4ccoc4)nc4ccccc34)c2c1 6.63%
COc1ccc(N2C(=O)[C@@H]3C[C@H]2CN3Cc2cccn2-c2ccccn2)cc1Cl 13.8%
Cc1cc2ccc(=O)oc2cc1OC[C@@H](O)C(C)(C)O -3.76%
CCCCOC(=O)NS(=O)(=O)c1sc(CC(C)C)cc1-c1ccc(Cn2c(CC)nc3c(C)cc(C)nc32)cc1 -10.5% [at 75.8 µM]
O=C(Cc1cccs1)N[C@@H]1C(=O)N2C(C(=O)[O-])=C(C[n+]3ccccc3)CS[C@H]12 -26.4%
Cn1nccc1C(=O)NCC1CCC2(CCN(Cc3ccc(-c4ccc(Cl)cc4)o3)CC2)O1 (stereo unspecified) 1.75%
CC(C)=O 0.564%
Cn1cc(CN2CCOc3ccc(C(O)C4CCCCC4)cc3C2)cn1 (stereo unspecified) -4%
COC(=O)[C@@H]1CCCN1Cc1ccc2c(c1)CN(Cc1cccn1-c1ccc(Cl)cn1)CCO2 -0.331%
O=c1c(-c2ccc(Cl)cc2)nc2cncnc2n1Cc1ccccc1Cl -0.603%
CO/N=C(\C(=O)N[C@@H]1C(=O)N2C(C(=O)O)=C(CSc3nc(=O)c(O)nn3C)CS[C@H]12)c1csc(N)n1 20.9%
NC(=O)CC[C@@H](N)C(=O)O 14.8%
Cc1cc(C(=O)NCC2CCC3(CCN(Cc4ccc5ccccc5c4)CC3)O2)n(C)n1 (stereo unspecified) -6.61%
CN(C)c1ccc(C=O)c(O)c1 -22%
Oc1ccccc1O 10.3% [at 75.8 µM]
N[C@@H](C(=O)O)c1ccc(P(=O)(O)O)cc1 -3.59%
O=C(NCC1CCC2(CCN(Cc3cccc4cccnc34)CC2)O1)c1ccco1 (stereo unspecified) -3.34%
O=C1CCN(Cc2ccccc2)CCN1CCOc1ccccc1 2.55%
C[C@@H]1CCC2[C@](C)(CO)[C@@H](O)CC[C@]2(C)[C@]12CCC(CO)(CCO)O2 (stereo partly specified) 28.8%
Cc1cccc(CNC(=O)c2cnn(-c3ncc(C)c(-c4cccs4)n3)c2C2CC2)n1 14.4%
COc1ncc2nc(C)c(=O)n(CCC#N)c2n1 22.9%
Cc1cc2c(c(-c3nc4ccccc4s3)c1)OC(CNC(=O)CCc1cccnc1)C2 (stereo unspecified) 6.96%
CCNc1ncc2nc(CCc3ccccc3)c(=O)n(C[C@H]3CCCO3)c2n1 9.25%
CCOc1cc(-c2nccc3cc(OC)c(OC)cc23)cc(OCC)c1OCC -5.14%
Cc1ccc2c(Br)cc(Br)c(O)c2n1 6.59%
